Reference: article PMC4336329 (PLoS ONE, 2015)
The whole screen tested about 310,000 compounds, of which about 2,200 (0.71%) showed an effect of 50% or more. Effects have a minus sign here. Some of the results follow.

Molecular target: human ether-à-go-go-related gene (hERG) potassium channel (human, UniProt Q12809)
Assay: primary screen, population patch clamp on CHO cells stably expressing hERG

Chain of human ether-à-go-go-related gene (hERG) potassium channel (Q12809 whole entry, looked up): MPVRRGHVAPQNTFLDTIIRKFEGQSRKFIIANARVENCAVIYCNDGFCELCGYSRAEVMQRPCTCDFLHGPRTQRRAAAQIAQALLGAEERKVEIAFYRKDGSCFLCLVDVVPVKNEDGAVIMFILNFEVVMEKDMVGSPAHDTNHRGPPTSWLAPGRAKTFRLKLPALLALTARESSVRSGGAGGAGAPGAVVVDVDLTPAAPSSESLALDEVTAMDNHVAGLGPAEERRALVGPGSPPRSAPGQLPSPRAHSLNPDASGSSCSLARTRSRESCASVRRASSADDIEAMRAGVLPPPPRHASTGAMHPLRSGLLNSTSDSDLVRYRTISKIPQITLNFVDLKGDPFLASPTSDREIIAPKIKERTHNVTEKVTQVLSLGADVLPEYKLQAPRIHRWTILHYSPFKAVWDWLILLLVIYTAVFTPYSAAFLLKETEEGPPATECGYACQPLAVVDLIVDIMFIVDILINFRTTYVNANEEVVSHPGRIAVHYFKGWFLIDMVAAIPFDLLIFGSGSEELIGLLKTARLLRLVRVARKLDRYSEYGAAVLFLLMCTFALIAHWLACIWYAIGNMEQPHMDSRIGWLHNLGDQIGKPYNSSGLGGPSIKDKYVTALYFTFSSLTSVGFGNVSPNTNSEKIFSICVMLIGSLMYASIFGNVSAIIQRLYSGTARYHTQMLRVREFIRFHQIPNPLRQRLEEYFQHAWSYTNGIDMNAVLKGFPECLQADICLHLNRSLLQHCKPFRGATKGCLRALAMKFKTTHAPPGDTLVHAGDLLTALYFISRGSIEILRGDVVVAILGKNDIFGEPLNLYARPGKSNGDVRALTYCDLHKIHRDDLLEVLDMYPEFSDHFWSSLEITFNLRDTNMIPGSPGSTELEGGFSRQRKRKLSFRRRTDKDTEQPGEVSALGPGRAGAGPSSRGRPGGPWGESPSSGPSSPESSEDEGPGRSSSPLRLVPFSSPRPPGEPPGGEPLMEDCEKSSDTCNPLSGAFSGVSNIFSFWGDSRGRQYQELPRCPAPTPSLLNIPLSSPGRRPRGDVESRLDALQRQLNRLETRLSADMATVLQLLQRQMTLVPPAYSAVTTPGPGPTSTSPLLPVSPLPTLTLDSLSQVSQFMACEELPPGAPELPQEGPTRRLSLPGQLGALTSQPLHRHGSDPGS

Structure (SMILES) | hERG current change (%, negative = inhibition) at 1uM [%]
CC(C)CNc1nc(=S)nc(N(C)C)[nH]1 | 7.75
COc1cc2[nH]cc(C(=O)NCCc3ccccc3)c(=O)c2cc1OC | -12.5
CCOc1ccc(NC(=O)CN(C)C(=O)c2c(C)nn(-c3ccccc3)c2Cl)cc1OCC | 6.74
O=c1c2ccccc2ncn1-c1ccccc1F | 11.5
CCOC(=O)c1cccc(NC(=O)CSc2nc(N)cc(N)n2)c1 | 7.84
CC(C)c1nnc(NC(=O)CCS(=O)(=O)c2ccccc2)s1 | 20.1
CC(C)Cc1nc(SCC(=O)Nc2ccc(S(N)(=O)=O)cc2)n[nH]1 | -2.24
COc1cccc(CN2CCNC(=O)C2CC(=O)N(C)C2CCOCC2)c1 (stereo not shown) | 9.15
Cc1ncc(CO)c(/C=N/Nc2cccc(Cl)n2)c1O.Cl | 17.1
COc1ccc(/C=C/C(=O)NC(=S)Nc2ccc(Br)cn2)cc1 | 13.1
CCOC(=O)NC(NC(=S)Nc1ccc(OC)cc1)C(Cl)(Cl)Cl (stereo not shown) | 4.33
Cc1cc(C)c(S(=O)(=O)c2ccc(F)cc2C)c(=O)[nH]1 | 17.2
COc1ccc(OC)c(C(=O)CSc2nc3cccnc3n2C)c1 | 9.65
COc1ccc2[nH]c(O)c(NC(C)=O)c2c1 | 2.32
O=c1ccc(Cc2ccc(Cl)cc2)n[nH]1 | 12.6
COc1cc(NC(=O)c2ccccc2)ccc1NC(=O)Cc1ccccc1 | 13.4
CCOC(=O)C1=NOC2C3CC(C12)C1C(=O)N(CCc2ccc(OC)c(OC)c2)C(=O)C31 (stereo not shown) | 11.9
CC(NC(=O)c1ccncc1)C(C)(C)C (stereo not shown) | 3.98
CCc1cc(C(=O)Nc2ccc(C)cc2Br)cs1 | 14.1
Cc1cc2nc(C3CCCN(C(=S)Nc4ccccc4)C3)[nH]c2cc1C (stereo not shown) | 16.3
O=C(c1cccc(N2CCCC2=O)c1)N1CCOCC1 | 8.37
O=C(C1CCCO1)N1CCN(C(=S)Nc2ccccc2)CC1 (stereo not shown) | -17.7
O=C(Nc1ccccc1)NC1(C(=O)NCc2ccc3c(c2)OCO3)CCCCC1 | 20.8

Structure (SMILES) | hERG current change (%, negative = inhibition) at 1uM [%]
COc1ccc(CC(=O)N(Cc2ccccc2)c2ccccc2)cc1S(=O)(=O)N1CCOCC1 | 17
Cc1oc2ccc(OC(=O)c3cccs3)cc2c1C(=O)OC(C)C | 6.01
Cc1ccc(C)c(NC(=S)NC(NC(=O)Cc2cccc3ccccc23)C(Cl)(Cl)Cl)c1 (stereo not shown) | 4.51
CN1CCN(C2Cc3ccccc3Sc3cc(C(F)(F)F)ccc32)CC1.O=C(O)/C=C\C(=O)O (stereo not shown) | -2.36
CCOC(=O)C1(Cc2cccc(F)c2)CCN(CC2CC2)CC1 | -2.54
Cc1nc2ccccc2c(=O)n1-c1ccc([N+](=O)[O-])cc1 | 11.2
Cc1c(/C=N/N2C(=O)C3C4C=CC(C4)C3C2=O)c2ccccc2n1C (stereo not shown) | 9.84
CCOC(=O)C1CCCN(S(=O)(=O)c2cc3c4c(c2)CCN4C(=O)CC3)C1 (stereo not shown) | -4.3
Cc1ccc(OC(=S)Nc2ccccc2)c(C)c1 | 5.51
Cc1ccc(S(=O)(=O)N2CCN(C(=O)c3cccs3)CC2)cc1 | 12.3
Cn1ncc(-c2ccno2)c1C(=O)O | 21.6
COc1ccc(C(=O)N(CN2CCCC2=O)c2ccccc2OC)cc1OC | 0.603
Fc1cccc(Cl)c1Cn1nnc(-c2ccc3c(c2)OCO3)n1 | 1.27
Cc1cccc(NC(=O)Nc2c(C)n(C)n(-c3ccccc3)c2=O)c1 | 9.37
CCOc1ccc(C2CC(c3ccc(F)cc3)Nc3nc(N)nn32)cc1 (stereo not shown) | 1.04
Cc1cc(NC(=O)c2ccco2)ncc1NC(=O)CCc1ccccc1 | 0.856
CCOc1ccc(OCCOC(=O)CN2C(=O)NC3(CCCC3)C2=O)cc1 | 11.8
NC(=O)c1cccc2c1C(=O)N(C1CCCCC1)C2 | 15.1
COCC(C)NC(=O)CSc1nc2ccccc2n1CCc1ccccc1 (stereo not shown) | 15.1
O=S(=O)(NC1CCC(NS(=O)(=O)c2c(F)cccc2F)CC1)c1ccc2c(c1)OCCO2 (stereo not shown) | 10.7
Cc1nc(N/N=C/c2ccc(O)cc2)c2cnn(-c3ccccc3)c2n1 | 8.16
Cc1ccc(C2=NS(=O)(=O)N(C)C(C(=O)N(C)C3CCCCC3)=C2)cc1 | -27.5
COc1ccccc1OCCNC(=O)c1ccc(C(C)(C)C)cc1 | 3.25

Structure (SMILES) | hERG current change (%, negative = inhibition) at 1uM [%]
O=C(Cc1ccccc1)Nc1nc(-c2cccs2)cs1 | 0.286
Cc1ccc(N(CC(=O)N/N=C/c2cc(C)n(-c3ccccc3C)c2C)S(C)(=O)=O)cc1 | 1.68
OC1C=CSc2nc3ccccc3n21 (stereo not shown) | 7.81
O=C(Nc1ccc(Cc2ccncc2)cc1)c1ccc(S(=O)(=O)N2CCOCC2)cc1 | 7.8
COc1ccc(C2=NOC(C(=O)Nc3cccc(O)c3)C2)cc1 (stereo not shown) | 7.2
CCC(=O)C1=C(N2CCCC2)CC(C)(C)CC1=O | 10.8
CCOc1ccccc1NC(=O)NCCCCc1ccccc1 | 7.23
C/C(=N\Nc1nncc2ccccc12)c1cccc(OC(F)F)c1 | 15
CCC(=O)Nc1ccc(-c2nnc(SCC(=O)Nc3nccs3)n2C)cc1 | 4.84
COc1ccc(OC)c(S(=O)(=O)Nc2cccc(-c3ccc4nncn4n3)c2)c1 | 11.5
O=C(NNS(=O)(=O)c1ccc(F)cc1F)c1csc(-c2cccnc2)n1 | 15.6
Cc1nc2ccc(NS(=O)(=O)c3ccc(F)cc3)cc2s1 | 15.1
Cc1cccc(C)c1N(CC(=O)NCc1ccccc1)C(=O)c1csnn1 | 10.1
CC(C)(C)NC(=S)NCc1ccco1 | 10.7
Cc1cccc(-n2c(CCc3ccccc3)nnc2SCC(=O)c2ccccc2)c1 | -1.14
Nc1nc(COc2ccccc2)cs1 | 5.04
Cc1ccc(NC(=O)C2CCCCC2C(=O)O)cc1C (stereo not shown) | 1.63
CCOc1cc(/C=C/C(=O)OCC(=O)NCCN2C(=O)CSC2=O)ccc1OCC(C)C | 9.05
CCOc1cccc(-c2c(C(=O)N/N=C(\C)c3ccncc3)nnn2-c2nonc2N)c1 | -4.95
CCOC(=O)c1cc(-c2ccc(OC(F)F)cc2)nc2nc(SC)[nH]c(=O)c12 | -7.54
CC1CC(=O)N(CC(=O)NC2CCCCC2)c2ccccc2S1 (stereo not shown) | 9.37
Cc1ccc(C)c(OCCn2c(=O)c3c(ncn3C3CCCC3)n(Cc3ccccc3)c2=O)c1 | 1.19
c1ccc(-c2cc(-c3ccccc3)ncn2)cc1 | 1.75

Structure (SMILES) | hERG current change (%, negative = inhibition) at 1uM [%]
CCOC(=O)c1sc(C)c2c(=O)n(Cc3ccc(Cl)cc3)cnc12 | 7.44
N#CC(C#N)=C1C=C2C=C(N3CCCCC3)CCC2CC1 (stereo not shown) | 2.79
COc1ccccc1CCNC(=O)C1CCN(C(=O)/C=C/c2ccccc2)CC1 | 12.7
COC(=O)CCNc1ccc2c(c1)OCCO2 | 8.01
CCOC(=O)CCc1c(C)c(C#N)c2nc3ccccc3n2c1-n1cnc2ccccc21 | 8.48
CN1CCN(c2ccc(C(F)(F)F)cc2NC(=O)c2ccco2)CC1 | -30.8
C/C(=N\NC(=O)c1ccc(Cl)cc1)c1cccnc1 | 7.47
CCC(C)N(C(=O)COc1ccccc1C(=O)NCc1ccccc1)C1CCS(=O)(=O)C1 (stereo not shown) | -12.3
CCOC(=O)N1CCN(C(=O)c2cc3c(ccc4ccccc43)oc2=O)CC1 | 15.4
COc1ccc(OC)c(CN2CCN(C(=O)CCNC(=O)c3ccc(Br)cc3)CC2)c1 | -1.18
Cc1c(O)c2ccccc2n(-c2ccccc2)c1=O | 14
O=C(NNS(=O)(=O)c1ccc(Br)cc1)c1ccncc1 | 8.67
O=c1c2c3nc4ccccc4nc3n(/N=C/c3ccco3)c2ncn1CCC1=CCCCC1 | 0.651
Cc1ccc(S(=O)(=O)N(C)c2ccccc2C(=O)Nc2c(F)cccc2F)cc1 | 14.5
O=C1c2ccccc2C(=O)c2c1cccc2N1CCN(Cc2ccccc2)CC1 | -6.21
CC1(C)CC(=O)C2=C(C1)N(Cc1ccco1)C(=O)C2(O)C(F)(F)F (stereo not shown) | 10.7
C/C=C1\COC(C(=O)NCCCN2CCCC2=O)(C(F)(F)F)C=C1C=C(C)C (stereo not shown) | 9.8
COc1ccc(CCNC(=O)c2cc(-c3cc(C)cc(C)c3O)n[nH]2)cc1OC | -1.05
CC(=O)OC1N=C(c2ccccc2)c2cc(Br)ccc2NC1=O (stereo not shown) | 4.39
CC(NC(=O)CNC(=O)c1ccc2c(c1)OCO2)c1ccc(S(N)(=O)=O)cc1 (stereo not shown) | 2.65
C=CCn1c(SCC(=O)NCCC2=CCCCC2)nc2ccc(Cl)cc2c1=O | 10.9
COc1ccc(Oc2cc(C)c3ccccc3n2)cc1 | 12
